Source: paper PMC4336329 (PLoS ONE, 2015)
About 14,000 (4.5%) of roughly 310,000 compounds showed an effect of 50% or more. The effect is printed as a negative number. This is one part of the list.

Target: human ether-à-go-go-related gene (hERG) potassium channel (human, UniProt Q12809)
Experiment: primary screen, population patch clamp on CHO cells stably expressing hERG
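Also: peak tail current of the secondary pulse compared with the same well before compound.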

human ether-à-go-go-related gene (hERG) potassium channel, sequence (Q12809 whole entry, looked up): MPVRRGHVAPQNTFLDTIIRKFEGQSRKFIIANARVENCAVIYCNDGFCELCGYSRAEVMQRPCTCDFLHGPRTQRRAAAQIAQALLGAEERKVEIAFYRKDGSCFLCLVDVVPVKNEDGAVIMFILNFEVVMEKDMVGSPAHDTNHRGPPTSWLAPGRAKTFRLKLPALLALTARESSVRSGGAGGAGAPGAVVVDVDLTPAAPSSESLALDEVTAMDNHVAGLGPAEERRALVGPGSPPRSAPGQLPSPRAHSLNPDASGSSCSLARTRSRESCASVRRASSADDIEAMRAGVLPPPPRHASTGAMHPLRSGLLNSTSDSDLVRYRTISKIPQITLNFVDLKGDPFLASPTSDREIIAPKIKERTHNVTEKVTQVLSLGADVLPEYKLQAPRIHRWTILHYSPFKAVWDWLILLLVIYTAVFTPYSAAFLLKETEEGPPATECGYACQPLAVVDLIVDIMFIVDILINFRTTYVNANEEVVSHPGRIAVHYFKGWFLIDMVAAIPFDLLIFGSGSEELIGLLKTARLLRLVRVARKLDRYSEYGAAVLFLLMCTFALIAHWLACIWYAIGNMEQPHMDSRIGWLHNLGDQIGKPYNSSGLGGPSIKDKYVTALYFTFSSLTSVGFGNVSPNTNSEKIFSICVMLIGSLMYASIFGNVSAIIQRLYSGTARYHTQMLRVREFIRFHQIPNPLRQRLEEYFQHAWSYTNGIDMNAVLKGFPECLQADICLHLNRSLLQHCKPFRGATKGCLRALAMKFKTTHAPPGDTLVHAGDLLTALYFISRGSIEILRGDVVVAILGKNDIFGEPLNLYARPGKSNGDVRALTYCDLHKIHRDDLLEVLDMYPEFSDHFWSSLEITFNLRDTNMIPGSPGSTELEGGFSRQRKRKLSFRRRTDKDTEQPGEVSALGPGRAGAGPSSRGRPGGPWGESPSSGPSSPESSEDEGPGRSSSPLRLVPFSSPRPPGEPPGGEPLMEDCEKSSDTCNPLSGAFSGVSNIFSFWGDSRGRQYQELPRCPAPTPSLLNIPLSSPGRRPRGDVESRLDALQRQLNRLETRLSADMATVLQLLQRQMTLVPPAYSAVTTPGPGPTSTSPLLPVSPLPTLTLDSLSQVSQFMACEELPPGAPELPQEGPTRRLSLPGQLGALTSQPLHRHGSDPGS

Structure (SMILES)	hERG current change (%, negative = inhibition) at 10uM [%]
COC(=O)c1ccc(S(=O)(=O)NCc2ccc(OC)cc2)n1C	-1.31
CCOc1c(Br)cc(C(=O)NCCCn2ccnc2)cc1OC	4.22
CC(=O)Nc1ccc(C(=O)NCCCSc2ccccc2)cc1	10.2
c1ccc(OCCCCN2CCCCC2)cc1	1.35
COc1ccc(CC(=O)Nc2cccc(/C(C)=N/NC(=O)C3(C)CC3(Br)Br)c2)cc1 (stereo not drawn)	6.31
Cl.c1ccc(CCN=C2CCCc3c2[nH]c2ccccc32)cc1	-73.2
CCN1CCN(CC(=O)c2cc(Cl)ccc2Cl)CC1	21.9
Cc1cc(C)c(-c2cc(NC(=O)COC(=O)c3ccc(CO)cc3)n(-c3ccccc3)n2)cc1C	9.94
O=C(CCn1cccc1)N1CCc2ccccc21	9.79
CN1CCN(c2ncnc3c2[nH]c2ccc(F)cc23)CC1	-14
COc1cc(/C=C2/NC(=O)N(Cc3ccccc3F)C2=O)cc(OC)c1O	-25.2
Cn1nnnc1NCc1ccc(Cl)cc1	9.84
CCN(CC(=O)Nc1ccc(OC)cc1)C(=O)CCS(=O)(=O)c1ccc(C)cc1	-0.944
COc1ccccc1NC(=O)COc1cc(Br)c(CNCCCN2CCOCC2)cc1OC	-54.6
Cc1cc(-c2n[nH]c(=S)n2/N=C/C=C/c2ccccc2)n[nH]1	6.76
Cc1ccc(S(=O)(=O)N(C(=O)c2ccncc2)c2ccc3oc4c(c3c2)CCCC4)cc1[N+](=O)[O-]	20.9
C=CCn1nnnc1SCC(=O)Nc1ccccc1C(=O)OC	-14.2
Cc1ccccc1OCc1nc2ccccc2c(=O)n1/N=C/c1cccc([N+](=O)[O-])c1	-0.947
Cc1ccc(/C=N/NC(=O)c2cc(-c3ccccc3)nc3ccccc23)o1	17.1
CC1CCN(c2c(NCC3CCC(C(=O)NCc4ccc(F)cc4)CC3)c(=O)c2=O)CC1 (stereo not drawn)	-4
Clc1cc(Br)ccc1OCCCn1ccnc1	-39.5
CCOc1cc(S(=O)(=O)NCc2ccccc2)c(OCC)cc1-n1cnnn1	-14.3

Structure (SMILES)	hERG current change (%, negative = inhibition) at 10uM [%]
CCc1noc(C)c1C(=O)N(Cc1ccccc1)c1c(N)n(CCOC)c(=O)[nH]c1=O	8.37
C=CCn1c(C)nnc1SCC(=O)NC1CCCCC1	12.3
Cc1ccc(C(=O)Cn2c(C(=O)/C=C/c3ccccc3)nc3ccccc32)cc1	-11.9
CCOC(=O)CNC(=O)c1cnc(Nc2ccccc2OC)c2ccccc12	5.33
O=C(COc1ccccc1)Nc1ccc2[nH]ncc2c1	-2.56
COc1ccc(S(=O)(=O)NC(CC(=O)N2CCc3ccccc32)c2ccco2)cc1 (stereo not drawn)	-17.3
Cl.Oc1ccc(C(c2nnnn2C2CCCC2)N2CCc3ccccc3C2)cc1 (stereo not drawn)	-17.7
Cl.Nn1cnnc1N/N=C/c1ccc(Cl)cc1Cl	6.34
CCCc1[nH]n(-c2nc3ccccc3s2)c(=O)c1C=NCCCOC	-57.2
CCCC(=O)C1=C(N(C)c2ccccc2)CC(C)(C)CC1=O	12.4
O=C(N/N=C/c1ccc(O)cc1)c1csc2c1CCCC2	-19.7
COc1ccccc1C(=O)NCC(=O)NCc1cc(=O)n(C)c(=O)n1C	21.8
Cc1cccc(C(=O)OCC(=O)Nc2nccs2)c1	5.87
Cc1cc(C)n(Cc2ccc(NC(=O)c3c([N+](=O)[O-])c(C)nn3C)cc2)n1	0.739
CCCN(CCC)S(=O)(=O)c1ccc(C(=O)Nc2nc(-c3ccccc3)c(C(=O)OCC)s2)cc1	0.0347
O=C(OCCN(C1=NS(=O)(=O)c2ccccc21)c1ccc(Cl)cc1)c1ccco1	-35.3
Cc1ccnc(NC(=O)C2CCN(S(=O)(=O)c3cccc(C(F)(F)F)c3)CC2)c1	7.19
COc1ccc(-c2csc(NC(=O)c3ccc(OCC(=O)N4CCOCC4)c(OC)c3)n2)cc1OC	-27.6
CC(=O)NS(=O)(=O)c1ccc(NC(=O)c2ccc3c(c2)C(=O)N(CCC(C)C)C3=O)cc1	14.1
CC1C(=O)N2CCCc3cc(S(=O)(=O)N4CCN(c5cccc(Cl)c5)CC4)cc1c32 (stereo not drawn)	-5.13
CC(C)Oc1ccc(CSc2ncn[nH]2)cc1	14.4
Cc1ccccc1NC(=O)CN1C(=O)N/C(=C\c2cccn2-c2cccc(C(=O)O)c2)C1=O	16.7

Structure (SMILES)	hERG current change (%, negative = inhibition) at 10uM [%]
Nc1ncc(-n2cncn2)c(-c2ccccc2)n1	0.822
O=C(CN(c1ccc(F)cc1)S(=O)(=O)c1ccc2c(c1)OCCO2)NCC1CCCO1 (stereo not drawn)	-6.89
COc1ccc(C2=NS(=O)(=O)N(C)C(C(=O)Nc3ccc(F)cc3F)=C2)cc1	10.1
COc1ccc2cc(C(=O)NCC3CCCO3)[nH]c2c1 (stereo not drawn)	28.8
Cc1cc(=O)oc2cc(OCC(=O)N3C[C@H]4C[C@@H](C3)c3cccc(=O)n3C4)ccc12	1.52
O=C(O)c1ccc(N/N=C/c2ccc(-c3cccc(Cl)c3)o2)cc1	8.51
COc1ccc(C(=O)NCC(=O)N2CC=C(c3ccccc3)CC2)cc1OC	-37.9
Cc1ccccc1CN(C)C(C)C(=O)NCc1ccccc1 (stereo not drawn)	17.5
OCCNNC(=S)NC1CC2C=CC1C2 (stereo not drawn)	-1.57
Cc1c(CCC(=O)NCCC(=O)O)c(=O)oc2cc3occ(-c4ccccc4)c3cc12	0.134
Cc1ccc(-n2nnnc2CNC(=O)c2ccc(Br)o2)cc1C	8.18
Cc1ccc2c(c1)N(CC(=O)NCC1CCCO1)C(=O)C(C)O2 (stereo not drawn)	0.079
Cc1cccc(CN2CCSCC2)c1	7.05
COCCn1c(SCC(=O)Nc2cccc(C)c2)nnc1C(C)C	2.25
COc1cccc(OCc2cc(C(=O)N3CCN(C)C(c4ccccc4)C3)no2)c1 (stereo not drawn)	-6.09
O=C(CCc1ccccn1)N1CCCC(Nc2ccc(F)cc2)C1 (stereo not drawn)	-1.87
CCC1CCCCN1Cc1nc2c(c(=O)n(C)c(=O)n2C)n1Cc1cccc2ccccc12 (stereo not drawn)	9.75
O=C(NCCCCc1ccccc1)C1CC(c2ccc(C(F)(F)F)cc2)=NO1 (stereo not drawn)	2.14
CCOCCCNC(=O)C(c1ccccc1)N(Cc1cccs1)C(=O)CNC(C)=O (stereo not drawn)	3.81
O=c1c2ccccc2ncn1-c1ccc([N+](=O)[O-])cc1[N+](=O)[O-]	10.7
N#CC1(c2ccccc2)CCN(C2CC(=O)N(c3ccc4c(c3)OCO4)C2=O)CC1 (stereo not drawn)	20.1
Cc1ccc(C(=O)NC(=S)N2CC(C)OC(C)C2)cc1[N+](=O)[O-] (stereo not drawn)	18.4

Structure (SMILES)	hERG current change (%, negative = inhibition) at 10uM [%]
Cc1cc(C(=O)O)cc(S(=O)(=O)NNC(=O)c2cccs2)c1C	14.1
CCCNC(=O)C(Cc1cccc(Cl)c1)NC(=O)c1ccc(C#N)cc1 (stereo not drawn)	-11
COc1ccc(CC(=O)OCC(=O)NC(=O)Nc2ccccc2F)cc1	7.77
Cc1nc2cc(NC(=O)Nc3ccc(N4CCOCC4)cc3)ccc2n1C	6.34
COc1cccc(NC(=O)C(C)Sc2nnc(C3CC3)n2C2CC2)c1 (stereo not drawn)	-67
CCCNC(=O)[C@H](Cc1c[nH]c2ccccc12)NC(=O)c1ccccc1Cl	7.44
O=C(N/N=C/c1ccncc1)c1ccccc1OCc1ccc(Br)cc1	-24
CCOC(=O)N1N=C(C)CC1(O)c1ccccc1 (stereo not drawn)	-4.74
CC(C)NC(=O)c1cc2nc(-c3ccco3)cc(C(F)(F)F)n2n1	-9.42
COc1ccccc1N1CCN(C(=O)CNC(=O)Cn2cnc3sc(C)c(C)c3c2=O)CC1	-3.28
O=c1[nH]c(=O)n(-c2cccc(Cl)c2)c(O)c1C=NCCN1CCCCC1	7.9
COc1cc2c(cc1NC(=O)C1CCCO1)oc1ccccc12 (stereo not drawn)	0.857
Cc1nc2nc(SCc3ccc([N+](=O)[O-])cc3)[nH]c2cc1Br	1.02
O=C(CCCCN1CCCCC1)c1ccc2c(c1)Cc1ccccc1-2	-44.8
Cc1ccc2nc(Cl)c(CN(C(=O)c3cnccn3)C3CCCCC3)cc2c1	-24.7
COCCN1C(=O)NC(=O)/C(=C\c2ccc(F)cc2)C1=O	23.4
Cc1ccc(NC(=O)c2cccc(C(=O)OC(C)C)n2)c(Br)c1	-3.66
CCOC(=O)c1c(C)n(Cc2ccccc2)c2ccc(OCC(O)CN3C(=O)CNC3=O)cc12 (stereo not drawn)	2.2
O=C(CSc1nc2ccccc2[nH]1)Nc1ccccc1F	-10.1
O=CN(CCN(C=O)CN1CCCCC1)CN1CCCCC1	14.9
COCCN(C(=O)CCCC(=O)Nc1ccccn1)C(C(=O)NC1CCCCC1)c1ccc(C)cc1 (stereo not drawn)	-17.7
